Among the test systems are A101D; A2058; A375.
Holding throughout (assay): cell count relative to DMSO control; melanoma cells; higher = more viable cells
Holding throughout (conditions): library dose: standard library concentration; 72 h

Each structure is given as a SMILES string. The list shows a part of the results. Single values are uncertain, as repeats are few or missing.
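Further: cells treated in 1,536-well plates, then fixed and DAPI-stained, with nuclei counted from automated high-throughput microscope images.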

With `CC(=O)O[C@@]12CO[C@@H]1C[C@H](O)[C@@]1(C)C(=O)[C@H](O)C3=C(C)[C@@H](OC(=O)[C@H](O)[C@@H](NC(=O)OC(C)(C)C)c4ccccc4)C[C@@](O)([C@@H](OC(=O)c4ccccc4)[C@H]21)C3(C)C` [Docetaxel] + Nc1nc(F)nc2c1ncn2[C@@H]1O[C@H](CO)[C@@H](O)[C@@H]1O [fludarabine] (first compound 0.0005 µM, partner dose 1 µM), the cell count in the assay on A101D stood at 45.5%; with A2058, 3.72%; in the assay on A375 it was 25.2%.
`CO[C@H]1C[C@@H]2CC[C@@H](C)[C@@](O)(O2)C(=O)C(=O)N2CCCC[C@H]2C(=O)O[C@H]([C@H](C)C[C@@H]2CC[C@@H](OCCO)[C@H](OC)C2)CC(=O)[C@H](C)/C=C(\C)[C@@H](O)[C@@H](OC)C(=O)[C@H](C)C[C@H](C)/C=C/C=C/C=C/1C` [everolimus] + CN(NC(=O)CC(=O)NN(C)C(=S)c1ccccc1)C(=S)c1ccccc1 [STA4783] (first compound 0.1 µM, partner dose 0.03 µM): the cell count in the assay with A101D was determined as 50.8%; with A2058, 7.27%; in the assay with A375, 104%.
Taken in the same sequence, the figures for `CC(=O)O[C@@]12CO[C@@H]1C[C@H](O)[C@@]1(C)C(=O)[C@H](O)C3=C(C)[C@@H](OC(=O)[C@H](O)[C@@H](NC(=O)OC(C)(C)C)c4ccccc4)C[C@@](O)([C@@H](OC(=O)c4ccccc4)[C@H]21)C3(C)C` [Docetaxel] + C[C@@H]1CCN(C(=O)CC#N)C[C@@H]1N(C)c1ncnc2[nH]ccc12 [CP690550] (first compound 0.0005 µM, partner dose 5 µM) were 53.3%, 8.08% and 87.2%.
For `CC(=O)c1c(C)c2cnc(Nc3ccc(N4CCNCC4)cn3)nc2n(C2CCCC2)c1=O` [palbociclib] + O=C(Nc1cccc(Cl)c1)Nc1ncc(CCNc2ncnc3ccsc23)s1 [SNS314] (first compound 0.2 µM, partner dose 0.004 µM), the cell count was 75.8% in the assay with A101D, 90.3% in the assay with A2058 and 62.7% in the assay with A375.
Taken in the same sequence, the figures for `CC(=O)c1c(C)c2cnc(Nc3ccc(N4CCNCC4)cn3)nc2n(C2CCCC2)c1=O` [palbociclib] + CC(C)(C)c1cnc(CSc2cnc(NC(=O)C3CCNCC3)s2)o1 [SNS-032] (first compound 0.2 µM, partner dose 0.05 µM) were 64.2%, 99.4% and 78.4%.
Turning to `Nc1ccn([C@@H]2O[C@H](CO)[C@@H](O)C2(F)F)c(=O)n1` [gemcitabine] + CCCS(=O)(=O)Nc1ccc(F)c(C(=O)c2c[nH]c3ncc(Cl)cc23)c1F [PLX4720] (first compound 0.002 µM, partner dose 0.4 µM), the cell count in the assay on A101D came out at 62.6%; in the assay on A2058, 70.2%; in the assay with A375 it was 93.3%.
Taken in the same sequence, the figures for `CO[C@H]1C[C@@H]2CC[C@@H](C)[C@@](O)(O2)C(=O)C(=O)N2CCCC[C@H]2C(=O)O[C@H]([C@H](C)C[C@@H]2CC[C@@H](OCCO)[C@H](OC)C2)CC(=O)[C@H](C)/C=C(\C)[C@@H](O)[C@@H](OC)C(=O)[C@H](C)C[C@H](C)/C=C/C=C/C=C/1C` [everolimus] + CC(C)CCN1c2nc(Nc3cc(F)c(O)c(F)c3)ncc2N(C)C(=O)C1C [BID1870] (first compound 0.1 µM, partner dose 1 µM) were 76.1%, 59.1% and 103%.
On to `CC(=O)c1c(C)c2cnc(Nc3ccc(N4CCNCC4)cn3)nc2n(C2CCCC2)c1=O` [palbociclib] + Cn1c(Nc2ccc(C(F)(F)F)cc2)nc2cc(Oc3ccnc(-c4ncc(C(F)(F)F)[nH]4)c3)ccc21 [CHIR265] (first compound 0.2 µM, partner dose 0.4 µM), for which the cell count with A101D was 57.5%; with A2058 it was 61.1%; with A375, 85.4%.
In the case of `CO[C@H]1C[C@@H]2CC[C@@H](C)[C@@](O)(O2)C(=O)C(=O)N2CCCC[C@H]2C(=O)O[C@H]([C@H](C)C[C@@H]2CC[C@@H](OCCO)[C@H](OC)C2)CC(=O)[C@H](C)/C=C(\C)[C@@H](O)[C@@H](OC)C(=O)[C@H](C)C[C@H](C)/C=C/C=C/C=C/1C` [everolimus] + CNC(=O)c1cc(Oc2ccc(NC(=O)Nc3ccc(Cl)c(C(F)(F)F)c3)cc2)ccn1 [sorafenib] (first compound 0.1 µM, partner dose 2 µM), the cell count came out at 93.4% with A101D, 69.9% with A2058 and 123% with A375.
Consider `Nc1nc(F)nc2c1ncn2[C@@H]1O[C@H](CO)[C@@H](O)[C@@H]1O` [fludarabine] + Oc1nc(-c2ccc(C(F)(F)F)cc2)nc2c1CSCC2 [XAV939] (first compound 1 µM, partner dose 10 µM), for which the cell count in the assay with A101D stood at 97.7%; in the assay on A2058 it was 82.8%; in the assay with A375, 39.9%.
Take `Nc1nc(F)nc2c1ncn2[C@@H]1O[C@H](CO)[C@@H](O)[C@@H]1O` [fludarabine] + OCCn1cc(-c2cnc3nnn(Cc4ccc5ncccc5c4)c3n2)cn1 [PF04217903] (first compound 1 µM, partner dose 5 µM): the cell count with A101D is 69.9%; in the assay with A2058, 68.2%; in the assay with A375, 32.8%.

The values are drawn from the supplement of paper PMC4604168 (melanoma cell lines).
